# Laboratory results from paper PMC4336329 (PLoS ONE, 2015).
# The whole screen tested about 310,000 compounds, of which about 2,200 (0.71%) showed an effect of 50% or more. The effect is printed as a negative number. The list shows a part of the results.
# Biological target: human ether-à-go-go-related gene (hERG) potassium channel (human, UniProt Q12809)
# Assay: primary screen, population patch clamp on CHO cells stably expressing hERG
# Sequence of human ether-à-go-go-related gene (hERG) potassium channel (Q12809 whole entry, looked up): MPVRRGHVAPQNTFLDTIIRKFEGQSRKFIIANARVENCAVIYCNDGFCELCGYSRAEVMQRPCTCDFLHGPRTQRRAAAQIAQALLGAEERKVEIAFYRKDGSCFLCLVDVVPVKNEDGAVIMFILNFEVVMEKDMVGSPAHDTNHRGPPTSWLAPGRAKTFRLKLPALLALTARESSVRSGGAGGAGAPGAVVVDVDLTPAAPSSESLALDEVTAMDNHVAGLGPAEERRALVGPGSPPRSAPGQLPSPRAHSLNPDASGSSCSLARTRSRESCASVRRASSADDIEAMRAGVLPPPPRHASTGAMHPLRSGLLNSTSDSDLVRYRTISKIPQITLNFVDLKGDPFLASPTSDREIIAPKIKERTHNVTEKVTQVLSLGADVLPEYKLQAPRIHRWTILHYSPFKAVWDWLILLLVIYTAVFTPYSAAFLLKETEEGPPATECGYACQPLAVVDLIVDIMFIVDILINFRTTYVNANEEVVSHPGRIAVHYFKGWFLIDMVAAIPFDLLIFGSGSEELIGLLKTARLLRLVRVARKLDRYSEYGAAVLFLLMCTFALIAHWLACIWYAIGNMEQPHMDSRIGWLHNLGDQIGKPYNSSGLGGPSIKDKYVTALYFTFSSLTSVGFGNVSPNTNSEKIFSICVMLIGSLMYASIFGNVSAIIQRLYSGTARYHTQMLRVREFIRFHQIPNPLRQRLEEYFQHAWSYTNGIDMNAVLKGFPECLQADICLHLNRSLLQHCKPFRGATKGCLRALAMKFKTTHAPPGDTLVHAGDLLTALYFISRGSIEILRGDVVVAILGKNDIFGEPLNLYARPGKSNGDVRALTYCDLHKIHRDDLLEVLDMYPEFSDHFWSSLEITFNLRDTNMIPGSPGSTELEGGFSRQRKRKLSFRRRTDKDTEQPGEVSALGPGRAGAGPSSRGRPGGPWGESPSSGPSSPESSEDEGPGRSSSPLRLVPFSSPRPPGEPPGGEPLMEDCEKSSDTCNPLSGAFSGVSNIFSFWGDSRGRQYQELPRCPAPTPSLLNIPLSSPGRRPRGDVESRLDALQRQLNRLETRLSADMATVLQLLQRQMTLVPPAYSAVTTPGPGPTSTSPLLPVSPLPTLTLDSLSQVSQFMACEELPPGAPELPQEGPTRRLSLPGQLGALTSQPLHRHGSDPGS
row,SMILES,"hERG current change (%, negative = inhibition) at 1uM [%]"
1,Cc1ccc(O)c(C2=NNC(c3ccc(Cl)cc3)C2)c1 (centres unmarked),21.3
2,CC(C)CC(=O)N1CCC(O)(CS(=O)(=O)Cc2ccccc2Cl)CC1,7.28
3,N#Cc1c(C(F)(F)F)cc(-c2cccs2)nc1SCc1cccnc1,12.3
4,Cc1cccc(OCCSc2nc3ccccc3n2CCC(=O)O)c1,8.15
5,COc1ccccc1C(=O)N/C(=C\c1cn(S(=O)(=O)N(C)C)c2ccccc12)C(=O)N1CCCC1,11.4
6,Cc1ccc(S(=O)(=O)N(CC(=O)Nc2ccc(Cl)c([N+](=O)[O-])c2)C2CCCCC2)cc1,7.11
7,O=C(NC(=S)Nc1ccccc1N1CCCC1)c1ccc(F)cc1,11.8
8,CCN(CC)C(=O)Cn1c(=O)oc2ccccc21,11.4
9,CC(=O)c1ccc(N2CCN(C3CCC(C(C)(C)C)CC3)CC2)cc1 (centres unmarked),10.8
10,CCSCc1nnc(SCC(=O)Nc2ccc(F)cc2)n1CC,7.2
11,CCOC(=O)c1cc(-c2cccs2)[nH]n1,9.5
12,O=[N+]([O-])c1ccc(CN2CCN(c3ccccc3)CC2)o1,9.21
13,NC(=O)c1cc(-c2csc(NCCc3ccccc3)n2)ccc1O,14.1
14,CCC1=C(OC(=O)N(CC)CC)N2C(=O)OC(=NCCc3c[nH]c4ccccc34)[C@]2(Cc2ccccc2)[C@H]2C1=CC[C@H]1C(=O)N(C)C(=O)[C@H]12,14.8
15,Cc1ccc(S(=O)(=O)N2CCOC2CNC(=O)C(=O)NCCN(C)C)cc1 (centres unmarked),7.39
16,Cc1c(C(Nc2ccccn2)c2ccc(Cl)cc2)c(=O)n(-c2ccccc2)n1C (centres unmarked),9.5
17,O=C1CC(SC2=NCCS2)C(=O)N1c1ccc(Br)cc1 (centres unmarked),10.5
18,CCOC(=O)c1cc(-c2ccccc2)n(Cc2cc(CC)no2)n1,13.7
19,Clc1ccc(/C=N/Nc2nn[nH]n2)cc1,11.1
20,COc1ccccc1NC(=O)COC(=O)CC(C)(C)CC1=NS(=O)(=O)c2ccccc2N1,-44.2
21,Clc1ccc(Nc2ccc(NCc3ccccc3)nn2)cc1,1.26
22,CC(=O)c1cccc2c(O)c(C3=Nc4ccccc4C3=O)[nH]c12,3.06
23,COc1ccc(Cl)cc1NC(=O)CN(C)CC(=O)NCc1cccs1,5.81

row,SMILES,"hERG current change (%, negative = inhibition) at 1uM [%]"
1,COCc1cc(C)nc(SCc2ccccc2)c1C#N,15.3
2,CC(=O)c1cccc(N(C(=O)CNC(=O)c2cccs2)C(C(=O)NCC2CCCO2)c2ccccc2)c1 (centres unmarked),13.3
3,Cc1c(NC(=O)NCCN2C(=O)C3C4C=CC(C4)C3C2=O)c(=O)n(-c2ccccc2)n1C (centres unmarked),14.1
4,O=C(O)c1cccc(NC(=O)C2C3C=CC(C3)C2C(=O)O)c1 (centres unmarked),23.8
5,Nc1cc(=O)[nH]c(SCCSc2cc(Cl)ccc2Cl)n1,7.22
6,CC(C)c1nc(SCC(=O)Nc2cccc(S(N)(=O)=O)c2)n[nH]1,12.4
7,CC1CCCCC1NC(=O)CN1CCC(NC(=O)c2cccc(F)c2)CC1 (centres unmarked),8.19
8,CC(C(=O)NCc1ccc(Cl)cc1)n1cccc1C(=O)c1ccccc1 (centres unmarked),9.15
9,C[C@@H]1NC(=O)c2cc([N+](=O)[O-])cc(F)c2NCCC[C@@H](C(N)=O)NC(=O)[C@H](CC(N)=O)NC1=O,25.7
10,CCOC(=O)CSc1nc2c(c(=O)[nH]c(=O)n2C)n1CCc1ccccc1,4.16
11,Cc1ccc2nc(CSc3nnc(-c4ccco4)o3)cc(=O)n2c1,-54
12,COc1cccc(COC(=O)c2nn(-c3ccccc3)nc2N)c1,4.72
13,COc1ccc(OC)c(NC(=S)N2CCN(Cc3ccccc3)CC2)c1,15.3
14,CCOC(=O)C1CSc2[nH]c(=O)sc2C1c1ccccc1 (centres unmarked),-8.94
15,c1cnc(SCCOc2ccc3c(c2)CCC3)nc1,12.3
16,COc1ccc(C(CC(=O)O)NC(=O)c2cccs2)cc1 (centres unmarked),7.83
17,OC1(CC#CCN2CCCCC2)c2ccccc2-c2ccccc21,4.27
18,C=C(C)C1CC=C(C)/C(=N/NC(=O)c2cccc([N+](=O)[O-])c2)C1 (centres unmarked),14.9
19,COc1ccc(C(CNC(=O)C(CCSC)NC(=O)c2ccccc2Cl)N2CCCC2)cc1 (centres unmarked),12.7
20,COC(=O)c1ccc(NC(=O)Cc2ccc(C)cc2)cc1,16
21,CCOc1ccc(NCc2cc3c(C(C)(C)C)nn(-c4ccccc4)c3[nH]c2=O)cc1,10.8
22,CC1=C(C(=O)OCCOC(C)C)C(c2cccc3ccccc23)NC(=O)N1 (centres unmarked),12.4
23,Cn1c(=O)[nH]c(=O)c2c1nc(N1CCCCCC1)n2CCCSc1nc2ccccc2o1,4.5

row,SMILES,"hERG current change (%, negative = inhibition) at 1uM [%]"
1,Cc1ccc(N2CCN(S(=O)(=O)c3ccc(F)cc3)CC2)c(C)c1,14.9
2,Cc1noc(C)c1CSc1nc2ccccc2[nH]1,9.7
3,CCn1cc(C(=O)N2CCCC(N3CCN(c4cccc(C(F)(F)F)c4)CC3)C2)cn1 (centres unmarked),6.11
4,O=C(CSc1nc2ccccc2o1)Nc1nc2ccc(Br)cc2s1,5.62
5,N#CCCN(CCC#N)C(=O)COc1ccc(Cl)cc1Cl,-2.98
6,O=c1c2ccccc2c2ccccc2c(=O)n1Cc1ccco1,15.3
7,Cc1ccc[n+](/C(=C\C(=C=[N-])C#N)C(=O)c2ccc(Cl)cc2)c1,-1.09
8,COc1ccc(S(=O)(=O)NC(C)C(=O)NCc2ccncc2)cc1C (centres unmarked),17.2
9,Cc1nn(CC2CC2)c(=O)n1-c1ccc(C(C)C)cc1,12.2
10,CCc1cccc(NS(=O)(=O)c2c(C)[nH]c(=O)[nH]c2=O)c1,14.7
11,CCN(C(=O)CN1c2ccccc2CC1C)c1c(N)n(Cc2ccccc2)c(=O)[nH]c1=O (centres unmarked),13.9
12,CCOc1[nH]n(-c2ccccc2)c(=O)c1C=NCc1ccncc1,-11.8
13,COCCn1c(=NC(=O)c2nc3ccccc3s2)sc2cc(S(C)(=O)=O)ccc21,-10.7
14,Br.c1ccc(NNC2=NCCS2)cc1,14.2
15,CC1(C)CC(N2CCN(Cc3ccccc3)CC2)=CC(=[N+]2CCCCC2)C1.[I-],8.14
16,O=C1CCC(=O)N1OCCCCOc1ccccc1,1.53
17,CCc1ccccc1NC(=S)N(Cc1cccnc1)Cc1ccco1,4.57
18,COc1cc2c(cc1OC)C(NC(=O)C(F)(F)F)CNC2=O (centres unmarked),16.2
19,COc1ccc(NC(=O)CS(=O)CC(=O)Nc2cccnc2)cc1 (centres unmarked),13.5
20,COc1ccccc1NC(=O)C1CCN(S(=O)(=O)c2ccc3c(c2)NC(=O)CO3)CC1,15.7
21,CCn1nnnc1SCC(=O)Nc1nc2ccc(OC)cc2s1,7.19
22,COc1ccc(CC(=O)Nc2cccc(-c3nnc(-c4cccc(C)c4)o3)c2)cc1OC,16.9
23,COc1nc(Nc2ccc([N+](=O)[O-])cc2)nc(NC2CCCCC2)n1,11.2

row,SMILES,"hERG current change (%, negative = inhibition) at 1uM [%]"
1,CCCn1c(SCC(=O)NC2CC2)nnc1-c1ccccn1,5.68
2,CC1CCC(C(C)C)C(OCC(O)CN2CCN(Cc3ccccc3)CC2)C1.Cl (centres unmarked),-25.2
3,CCCCn1c(O)c(N=NC(=O)c2ccccc2NS(=O)(=O)c2cccs2)c2ccccc21,10.7
4,CCOC(=O)CC(NC(=O)C(CC)c1ccccc1)c1ccccc1Cl (centres unmarked),10.5
5,COc1ccccc1OCc1csc(N)n1,9.14
6,COc1ccc(-c2noc(CN(C)Cc3ccccc3)n2)cc1,9.28
7,O=C(NCCN1CCOCC1)c1ccc(/C=C2\Sc3ccccc3N(Cc3ccccc3F)C2=O)cc1,12.3
8,Cc1[nH]c2ccccc2c1C(=O)/C=C/c1ccccc1Cl,14.6
9,CCC1(O)CC(c2ccccc2)=NN1C(=O)c1ccccc1F (centres unmarked),12.6
10,CCOC(=O)c1ccc(NC(c2ccc(N(C)C)cc2)P(=O)(OC(C)C)OC(C)C)cc1 (centres unmarked),8.88
11,CC(c1ccncn1)N(C)Cc1nc(-c2ccc(C(F)(F)F)cc2)no1 (centres unmarked),13.6
12,CC(C)c1c(O)nc(SCCN2CCOCC2)[nH]c1=O.Cl,9.47
13,CCC(C)(C(=O)NC1CCCCC1)N(CC1CCCO1)C(=O)c1ccccn1 (centres unmarked),-80.8
14,Cc1ccc(OCCN(C)C(=O)CC2C(=O)NCCN2CC(C)(C)C)cc1 (centres unmarked),9.6
15,O=C(CCc1ccccc1)NNC(=O)c1ccccc1F,0.134
16,COc1cccc(C(=O)NCCS(=O)(=O)NCc2ccccn2)c1,9.36
17,CC(C)C(NC(=O)OCc1ccccc1)C(=O)NC1CCCCC1 (centres unmarked),9.47
18,O=C1N[C@@H](Cc2cn(S(=O)(=O)c3ccccc3)c3ccccc23)C(=O)N[C@H]1Cc1ccccc1,10.2
19,CCCc1n[nH]c(=O)c2c1nnn2Cc1ccccc1F,12
20,Cc1nc2ccc(-c3nc4cc(N)ccc4o3)cc2[nH]1,12.5
